# Reference: PubChem BioAssay (Tox21)
# Values joined by “and” are separate entries in the source; they are usually repeats but may differ in a detail not shown here. Equal entries are not always repeated. This list was built around the results that the source calls inconclusive (neither active nor inactive); the mix of calls is not that of the screen. Where the call is inconclusive, the potency comes from a doubtful curve fit. The source holds several records for some structures; these can differ, active in one and inactive in another. Active and inactive are the calls of the source. The call rests on the fitted dose curve; in most records, active means well fitted curve in the direction sought with a large enough effect in the repeat runs; inconclusive means weak or mixed curves; inactive means no such curve, though single readings can be large; an effect the other way counts as inactive or inconclusive.
# What was measured:
# [1] = A CellTox Green Cytotoxicity Assay to monitor cytotoxicity in HEK293 cells - 32 hour (AID 1224881); settings: CellTox Green fluorescence; series mostly up to 76.8 µM; further: nearly all actives have a fitted effect of over 40% in size
# In short: (§1)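 Seeding of HEK293 cells together with cytotoxicity dye preceded a 5 h incubation at 37 C/5% CO2. Test compounds in DMSO were then added and fluorescence monitored across 40 h.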
# [2] = qHTS RealTime-Glo MT Cell Viability Assay in HepG2 cells - 16 hour (AID 1224885); settings: RealTime-Glo luminescence; series mostly up to 76.8 µM; further: nearly all actives have a fitted effect of over 50% in size
# In short: (§2)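 HepG2 cells were seeded at 600 cells/well together with NanoLuc luciferase and a cell-permeant prosubstrate, preincubated 5 h at 37 C/5% CO2, then pin-dosed with compounds in DMSO. Nonlytic luminescence from viable cells was read at each time point.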
# [3] = qHTS RealTime-Glo MT Cell Viability Assay in HEK293 cells - 24 hour (AID 1224886); settings: RealTime-Glo luminescence; series mostly up to 76.8 µM; further: nearly all actives have a fitted effect of over 50% in size
# In short: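 HEK293 cells were seeded at 600 cells/well together with NanoLuc luciferase and cell-permeant prosubstrate, preincubated 5 h at 37 C/5% CO2, then given compound in DMSO by pintool. Luminescence from viable-cell prosubstrate reduction was read repeatedly over 40 h.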
# [4] = qHTS RealTime-Glo MT Cell Viability Assay in HepG2 cells - 0 hour (AID 1224889); settings: RealTime-Glo luminescence; series mostly up to 76.8 µM; further: nearly all actives have a fitted effect of over 50% in size
# In short: as §2
# [5] = qHTS RealTime-Glo MT Cell Viability Assay in HEK293 cells - 8 hour (AID 1224887); settings: RealTime-Glo luminescence; series mostly up to 76.8 µM; further: nearly all actives have a fitted effect of over 50% in size
# In short: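 Tox21 screen in HEK293 using RealTime-Glo MT chemistry, with cells and reagent co-dispensed. Luminescence proportional to viable cell number was captured at intervals during 40 h compound exposure at 37 C.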
# [6] = A CellTox Green Cytotoxicity Assay to monitor cytotoxicity in HEK293 cells - 16 hour (AID 1224888); settings: CellTox Green fluorescence; series mostly up to 76.8 µM; further: nearly all actives have a fitted effect of over 35% in size
# In short: as §1
# [7] = A CellTox Green Cytotoxicity Assay to monitor cytotoxicity in HEK293 cells - 8 hour (AID 1224884); settings: CellTox Green fluorescence; series mostly up to 76.8 µM; further: nearly all actives have a fitted effect of over 35% in size
# In short: as §1
# [8] = A CellTox Green Cytotoxicity Assay to monitor cytotoxicity in HepG2 cells - 0 hour (AID 1224882); settings: CellTox Green fluorescence; series mostly up to 35.3 µM; further: nearly all actives have a fitted effect of over 35% in size
# In short: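 Nonlytic assay: viable cells exclude the dye, so fluorescence scales with cell death. HepG2 at 600 cells/well, compounds added after 5 h, signal read across 40 h.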
# Potency means the concentration at half of the fitted maximal effect; tags describe the fitted curve by direction and shape.
compound,measurement,setting,value
C[C@@H](CN(C)C)CN1c2ccccc2Sc2ccccc21,Potency,[1],active: 13.4 µM
same,Potency,[2],"inconclusive: 19 µM [cytotoxic, partial curve, poor fit]"
same,Potency,[3],"inconclusive: 21.3 µM [cytotoxic, partial curve]"
same,Potency,[4],"inconclusive: 23.9 µM [rising, single point]"
c1cc(C(c2ccc(OCC3CO3)cc2)c2ccc(OCC3CO3)cc2)ccc1OCC1CO1 (centres undefined),Potency,[1],"inconclusive: 49 µM [activator, single point]"
same,Potency,[2],"inconclusive: 54.9 µM [cytotoxic, partial curve, poor fit]"
same,Potency,[3],"inconclusive: 7.76 µM [rising, partial curve, poor fit]"
C[C@H](CN1CCCC1)C(=O)c1ccc(C(F)(F)F)cc1,Potency,[1],"inconclusive: 26.8 µM [activator, single point]"
same,Potency,[2],"inconclusive: 26.8 µM [cytotoxic, single point]"
same,Potency,[3],"inconclusive: 26.8 µM [cytotoxic, single point]"
same,Potency,[5],"inconclusive: 26.8 µM [cytotoxic, single point]"
CC(C)CC(C)(C)C,Potency,[1],"inconclusive: 22.7 µM [activator, single point]"
same,Potency,[3],"inconclusive: 57 µM [cytotoxic, single point]"
same,Potency,[5],"inconclusive: 57 µM [cytotoxic, single point]"
same,Potency,[6],"inconclusive: 22.7 µM [activator, single point]"
same,Potency,[4],"inconclusive: 57 µM [cytotoxic, single point]"
C[C@]12C[C@H](O)[C@H]3[C@@H](CCC4=CC(=O)CC[C@@]43C)[C@@H]1CC[C@@H]2C(=O)CO,Potency,[1],"inconclusive: 7.78 µM [activator, single point]"
same,Potency,[3],"inconclusive: 13.8 µM [cytotoxic, full curve]"
same,Potency,[6],"inconclusive: 9.79 µM [activator, single point]"
same,Potency,[4],active: 9.79 µM and active: 3.47 µM and active: 9.52 µM
COc1ccc2cc3[n+](cc2c1OC)CCc1cc2c(cc1-3)OCO2,Potency,[1],"inconclusive: 24.7 µM [activator, partial curve] and inconclusive: 16.9 µM [activator, partial curve]"
same,Potency,[5],"inconclusive: 2.2 µM [cytotoxic, full curve] and inconclusive: 12 µM [cytotoxic, partial curve, poor fit]"
CN(Cc1cc(Br)cc(Br)c1N)C1CCCCC1,Potency,[1],"inconclusive: 26.8 µM [activator, single point]"
same,Potency,[3],"inconclusive: 26.8 µM [cytotoxic, single point]"
same,Potency,[5],"inconclusive: 26.8 µM [cytotoxic, single point]"
same,Potency,[6],"inconclusive: 30.1 µM [activator, single point]"
CCOc1ccc(Cc2nccc3cc(OCC)c(OCC)cc23)cc1OCC,Potency,[1],inactive
same,Potency,[2],active: 19 µM
same,Potency,[5],active: 10.7 µM
C=CC(=O)OCCOCC(CC)(COCCOC(=O)C=C)COCCOC(=O)C=C,Potency,[1],"inconclusive: 16.1 µM [activator, full curve, poor fit]"
same,Potency,[2],"inconclusive: 25.6 µM [cytotoxic, full curve]"
same,Potency,[3],active: 16.1 µM
same,Potency,[5],"inconclusive: 22.8 µM [cytotoxic, full curve]"
O=c1[nH]cnc2[nH]ncc12,Potency,[1],inactive
same,Potency,[3],inactive
CCN(CCCc1ccccc1)CCCc1ccccc1,Potency,[1],inactive
same,Potency,[3],"inconclusive: 23.9 µM [cytotoxic, partial curve]"
CCc1c(C(=O)NN2CCCCC2)nn(-c2ccc(Cl)cc2Cl)c1-c1ccc(Br)cc1,Potency,[1],inactive
same,Potency,[2],"inconclusive: 49 µM [cytotoxic, partial curve]"
same,Potency,[5],"inconclusive: 61.6 µM [cytotoxic, single point]"
C/C=C(\C)C(=O)OCCc1ccccc1,Potency,[1],"inconclusive: 34.7 µM [activator, partial curve]"
same,Potency,[7],"inconclusive: 54.9 µM [activator, partial curve, poor fit]"
same,Potency,[4],inactive
c1ccc2c(c1)c1cccc3ccc4cccc2c4c31,Potency,[1],inactive
same,Potency,[3],active: 19.5 µM
CCc1ccccc1O,Potency,[1],"inconclusive: 54.7 µM [activator, single point]"
same,Potency,[3],"inconclusive: 61.3 µM [cytotoxic, single point]"
same,Potency,[5],"inconclusive: 54.7 µM [cytotoxic, single point]"
same,Potency,[4],inactive
O=C(c1ccccc1)c1cc(Cl)ccc1O,Potency,[1],"inconclusive: 52.2 µM [activator, single point]"
same,Potency,[3],"inconclusive: 41.4 µM [cytotoxic, partial curve, poor fit]"
same,Potency,[5],"inconclusive: 52.2 µM [cytotoxic, single point]"
CCCCCCCCCCCC[N+](C)(C)C,Potency,[1],active: 54.8 µM and active: 17.4 µM and active: 30.9 µM
same,Potency,[3],"active: 4.89 µM and inconclusive: 4.9 µM [cytotoxic, full curve, poor fit] and inconclusive: 4.36 µM [cytotoxic, full curve]"
same,Potency,[6],"inconclusive: 21.9 µM [activator, single point]"
CCCCCCCCCCCCCC[N+](C)(C)Cc1ccccc1,Potency,[1],active: 39.5 µM and active: 19 µM and active: 17.8 mM
same,Potency,[2],active: 49.7 µM and active: 21.3 µM and active: 17.8 mM
same,Potency,[3],active: 5.58 µM and active: 6.74 µM and active: 5.01 mM
same,Potency,[5],"inconclusive: 3.79 µM [cytotoxic, partial curve, poor fit]"
same,Potency,[6],active: 44.3 µM and active: 23.9 µM and active: 20 mM
same,Potency,[4],"inconclusive: 62.6 µM [cytotoxic, partial curve, poor fit]"
C[Si](Cl)(c1ccccc1)c1ccccc1,Potency,[1],"inconclusive: 53.6 µM [activator, single point]"
same,Potency,[3],"inconclusive: 53.6 µM [cytotoxic, single point]"
same,Potency,[5],"inconclusive: 53.6 µM [cytotoxic, single point]"
C=CC(=O)OCCOCCOC(=O)C=C,Potency,[1],"inconclusive: 55.2 µM [activator, partial curve, poor fit]"
same,Potency,[2],"inconclusive: 49.2 µM [cytotoxic, partial curve]"
CCCCCCCCCCC[C@@H](C[C@@H]1OC(=O)[C@H]1CCCCCC)OC(=O)[C@H](CC(C)C)NC=O,Potency,[1],"inconclusive: 26.8 µM [activator, single point]"
same,Potency,[3],active: 8.49 µM
same,Potency,[5],"inconclusive: 7.56 µM [cytotoxic, full curve]"
CC1(C)S[C@@H]2[C@H](NC(=O)COc3ccccc3)C(=O)N2[C@H]1C(=O)O,Potency,[1],"inconclusive: 24.6 µM [activator, single point]"
same,Potency,[7],inactive
same,Potency,[6],"inconclusive: 24.6 µM [activator, single point]"
NS(=O)(=O)c1cc2c(cc1Cl)NC(CC1CCCC1)NS2(=O)=O (centres undefined),Potency,[8],"inconclusive: 26.8 µM [activator, single point]"
OC1CCCCCCCCCCC1,Potency,[8],active: 27.5 µM
same,Potency,[7],active: 43.6 µM
CCC(=O)OCCc1ccccc1,Potency,[1],inactive
same,Potency,[4],inactive
N[C@@H](CSSC[C@H](N)C(=O)O)C(=O)O,Potency,[8],"inconclusive: 0.107 µM [activator, single point]"
CC(=O)OCC(=O)[C@@]1(O)[C@H](OC(C)=O)C[C@H]2[C@@H]3CCC4=CC(=O)C=C[C@]4(C)[C@@]3(F)[C@@H](O)C[C@@]21C,Potency,[1],inactive
same,Potency,[4],"inconclusive: 21.3 µM [cytotoxic, partial curve, poor fit]"
CCC1=C[C@@H]2CN(C1)Cc1c([nH]c3ccccc13)[C@@](C(=O)OC)(c1cc3c(cc1OC)N(C)[C@H]1[C@@](O)(C(=O)OC)[C@H](OC(C)=O)[C@]4(CC)C=CCN5CC[C@]31[C@@H]54)C2,Potency,[8],inactive
same,Potency,[2],"inconclusive: 13.4 µM [cytotoxic, partial curve]"
same,Potency,[3],"inconclusive: 5.35 µM [cytotoxic, partial curve, poor fit]"
same,Potency,[5],"inconclusive: 19 µM [cytotoxic, partial curve]"
CC(C)=CCCC(C)CCO (centres undefined),Potency,[1],"inconclusive: 57 µM [activator, single point]"
same,Potency,[6],"inconclusive: 57 µM [activator, single point]"
CCCC(=O)OC[C@@H](OC(=O)CCC)[C@@H](OC(=O)CCC)[C@H](Cn1c2nc(=O)[nH]c(=O)c-2nc2cc(C)c(C)cc21)OC(=O)CCC,Potency,[8],active: 16.9 µM
same,Potency,[2],"inconclusive: 15.1 µM [cytotoxic, partial curve]"
same,Potency,[3],"inconclusive: 16.9 µM [cytotoxic, partial curve, poor fit]"
same,Potency,[5],"inconclusive: 13.4 µM [cytotoxic, partial curve]"
same,Potency,[6],active: 21.3 µM
Oc1ccc(Cc2ccccc2)cc1,Potency,[1],"inconclusive: 50.9 µM [activator, single point]"
same,Potency,[5],active: 22.7 µM
same,Potency,[6],"inconclusive: 57.1 µM [activator, single point]"
